The BET-seq Pho4 binding data (Le et al. 2018)
The other results are listed elsewhere or left out. These are noisy estimates, calculated here from bound and input reads.

Target: T1, Pho4 (S. cerevisiae) (UniProt P07270)
T1 sequence: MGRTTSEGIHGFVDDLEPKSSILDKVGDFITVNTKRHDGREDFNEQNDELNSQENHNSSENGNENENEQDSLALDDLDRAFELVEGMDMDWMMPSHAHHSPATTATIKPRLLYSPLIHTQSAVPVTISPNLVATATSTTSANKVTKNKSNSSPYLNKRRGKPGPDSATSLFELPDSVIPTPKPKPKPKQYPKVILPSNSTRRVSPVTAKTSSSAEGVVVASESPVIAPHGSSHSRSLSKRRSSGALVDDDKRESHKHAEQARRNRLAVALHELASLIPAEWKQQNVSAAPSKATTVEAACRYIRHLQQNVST
Test: relative binding free energy (BET-seq); higher = weaker binding
Details: reference: library average

Relative binding free energy, 1.42 kJ/mol:
GTGCTCACGTGTGTTT

Relative binding free energy, -0.0418 kJ/mol:
TGTGTCACGTGCGTTA
TATGACACGTGGTAAG
TATATCACGTGCGTTG
GAAGGCACGTGACTGG
TTTAACACGTGTATAG

Relative binding free energy, 1.8 kJ/mol:
GAGGTCACGTGAGTAT

Relative binding free energy, 0.879 kJ/mol:
GAGGTCACGTGGACAG
TAGGACACGTGAATGG
AAATTCACGTGGTGCA
GGTCGCACGTGTGAAT

Relative binding free energy, -0.92 kJ/mol:
ATTAGCACGTGGCTGT
ATTGGCACGTGGGTTA

Relative binding free energy, 0 kJ/mol:
TCCTGCACGTGTGGGA
TCGGACACGTGCTGGG
TGAGGCACGTGTCTTA
TTACCCACGTGTGGTG

Relative binding free energy, 0.753 kJ/mol:
GGAAACACGTGAGTGG
GGAGTCACGTGGATGA
GCAGACACGTGATGGT
TTGCTCACGTGGTGGT
TTCTTCACGTGTTATT
TTCATCACGTGGTAAT

Relative binding free energy, 0.544 kJ/mol:
TGTTTCACGTGCTCGT
GTCGACACGTGTTGGG
TTGAGCACGTGCGATT
CTGGTCACGTGAAGTA

Relative binding free energy, 0.92 kJ/mol:
GGGAACACGTGTATTT

Relative binding free energy, 1.63 kJ/mol:
TTTTACACGTGAGCTA

Relative binding free energy, -0.586 kJ/mol:
TGTGACACGTGCAGTG
TGGTACACGTGGGGTA
ATTAGCACGTGGTAGG
AGCGGCACGTGGTAGC
ATCTGCACGTGGGTTA

Relative binding free energy, 0.711 kJ/mol:
ATTGGCACGTGAAAGG
GGGGTCACGTGTGTAC
TCGGTCACGTGAGCGT
TTAATCACGTGGAGTG

Relative binding free energy, 0.167 kJ/mol:
ATTATCACGTGGGGTA
TTTAACACGTGTTTTT
CCGGTCACGTGTTTGT
CGATGCACGTGTAAGG

Relative binding free energy, 1.72 kJ/mol:
ATGGTCACGTGAACGA
GGCTTCACGTGAGGTG
GGTATCACGTGAAGCT
ATGATCACGTGAAGTG
CCATTCACGTGTGGTT

Relative binding free energy, -0.377 kJ/mol:
TTAGGCACGTGTTGTA
ATTAACACGTGGTCGT
AGTGACACGTGCGGGC
ATATACACGTGTATGA
TAGAGCACGTGTAGTA

Relative binding free energy, -0.293 kJ/mol:
TGAAACACGTGGGCAT
TGGGTCACGTGCACGG
TAGAACACGTGGGGGT
CGTGGCACGTGCGTTA

Relative binding free energy, 2.05 kJ/mol:
GATTGCACGTGAGTGC

Relative binding free energy, -0.209 kJ/mol:
ACGGGCACGTGGAGAT
CATGGCACGTGTGTGT
GGTCACACGTGGGTTG
TTGCACACGTGTGGTA
GGAGGCACGTGTAGTA

Relative binding free energy, 0.335 kJ/mol:
GTGTACACGTGTTGTA
CTTCTCACGTGGTTGG
AGTGTCACGTGGTTGC
TGTCTCACGTGGGGGG
CTGTACACGTGGTGAT

Relative binding free energy, 1.05 kJ/mol:
TTATTCACGTGCTGAT
ATTTCCACGTGATAGT
GGTGTCACGTGTGGAC

Relative binding free energy, 0.377 kJ/mol:
TGGTGCACGTGAGAAA
GGCGCCACGTGCAGGG
CTAATCACGTGTTTGG
AAGAGCACGTGAGGCT
TGAGGCACGTGAGTTT

Relative binding free energy, -1.09 kJ/mol:
AGCGGCACGTGGGGTG
ATTAGCACGTGGGCAG

Relative binding free energy, 1.26 kJ/mol:
TGGGACACGTGAAGGT
GTGGTCACGTGTAAGA

Relative binding free energy, 1.59 kJ/mol:
AAGTTCACGTGCTTTT

Relative binding free energy, -0.335 kJ/mol:
AAGGGCACGTGTGGCC
ATGCACACGTGGGAGT
ATGGGCACGTGCCTTT

Relative binding free energy, 1.55 kJ/mol:
AATGTCACGTGGAAAT
TTATTCACGTGATATC
GGGGTCACGTGAGACT

Relative binding free energy, 1.17 kJ/mol:
ATAGTCACGTGAATAT
CTCTTCACGTGAGGTG

Relative binding free energy, 0.628 kJ/mol:
TTACTCACGTGATGTG
TATTACACGTGTTCGT
TGCTGCACGTGGAATG
AGTGTCACGTGTTTGG
ACGTTCACGTGCTGGT
ATAGTCACGTGTAGCG

Relative binding free energy, 0.0837 kJ/mol:
ATAGTCACGTGTGTGC
TTAGTCACGTGTGGTG
TGTCTCACGTGGGATA
GTCTGCACGTGGATTG
GTAAACACGTGGAGGT
CGAAACACGTGTTTGT

Relative binding free energy, -1.3 kJ/mol:
TAGGGCACGTGGCAAG
AGTGCCACGTGGTATT
ATGCCCACGTGGGTGG

Relative binding free energy, -1 kJ/mol:
TGTAGCACGTGGTCGT
GGGGCCACGTGGGTAG
AAGAGCACGTGGAGGT

Relative binding free energy, -0.126 kJ/mol:
GTTCGCACGTGTATTG
TGTGGCACGTGGAGAT
GTAGGCACGTGCGATG
TAGAACACGTGTGGAT

Relative binding free energy, 0.837 kJ/mol:
CTATGCACGTGAGGGA
TGGGTCACGTGTTCTA

Relative binding free energy, -0.251 kJ/mol:
GCTGGCACGTGTTTGT
ATAGGCACGTGTCGGT

Relative binding free energy, -0.753 kJ/mol:
TGATGCACGTGGTGTC
CGTAACACGTGGTGTG
GTGGGCACGTGCTAGT

Relative binding free energy, 0.669 kJ/mol:
GGCTTCACGTGGTGTA
CTGTGCACGTGAGGTC
AATGACACGTGATTTA

Relative binding free energy, -0.669 kJ/mol:
TCAGGCACGTGTTATT
TTATGCACGTGGTTAC

Relative binding free energy, 2.13 kJ/mol:
AATTACACGTGAGGTA

Relative binding free energy, -1.05 kJ/mol:
CTGTGCACGTGGGTGC
GTGGCCACGTGGGTGC

Relative binding free energy, 1.13 kJ/mol:
GATTGCACGTGAGGTC
TTATTCACGTGTCCTG
GTTCGCACGTGAGGGT
CTGGGCACGTGAAAAG

Relative binding free energy, 0.962 kJ/mol:
TGGTACACGTGAGTGC
TGATTCACGTGGGTGG
AGGCTCACGTGGTGCT
GCGGTCACGTGTTGGA
GAAGGCACGTGAGTGA

Relative binding free energy, -0.879 kJ/mol:
TGTAGCACGTGCGCTT
ATATGCACGTGGTTTG

Relative binding free energy, 0.209 kJ/mol:
TATTACACGTGAGCGT
GGTGACACGTGAGCGT
TGCGGCACGTGATGTG

Relative binding free energy, 2.18 kJ/mol:
GGATTCACGTGAAGCT

Relative binding free energy, -0.167 kJ/mol:
TTGTACACGTGGTAAT
AGCCTCACGTGGGTGG
GGTAGCACGTGCGTAT
GTGTGCACGTGATAGA
ATAATCACGTGGGTAA
GAAGGCACGTGTATAG
GGCAACACGTGGTTGG

Relative binding free energy, 0.0418 kJ/mol:
ATGGTCACGTGTTACG
TCGTGCACGTGACGGG
CGGTGCACGTGTCAGG
TGCCGCACGTGTGGTT

Relative binding free energy, -0.502 kJ/mol:
ACTATCACGTGGGGTG
ATTTGCACGTGGGACT

Relative binding free energy, 0.586 kJ/mol:
TTGATCACGTGGTGAT
TCTAACACGTGGTGGG
AGTCGCACGTGTTTCG
GTGTACACGTGAGTTA
TGTATCACGTGAGCTT
GTGTGCACGTGATGTA
ATTTACACGTGAAAGG

Relative binding free energy, 1 kJ/mol:
AGGCTCACGTGTAGGA
GCTCTCACGTGTAGGG

Relative binding free energy, -0.544 kJ/mol:
AATAGCACGTGTGTTG

Relative binding free energy, -1.51 kJ/mol:
TGCAGCACGTGGGGCT

Relative binding free energy, 0.418 kJ/mol:
ATATTCACGTGGTTCT
CATGTCACGTGTGTTA
ATGGGCACGTGTGAGT

Relative binding free energy, 1.3 kJ/mol:
ATGAACACGTGAGATG
ATTTTCACGTGCATGA
TGTGTCACGTGATCAG

Relative binding free energy, 1.34 kJ/mol:
GGGGTCACGTGTTGAG

Relative binding free energy, 1.84 kJ/mol:
TCATTCACGTGAGTAG

Relative binding free energy, 1.92 kJ/mol:
TTATACACGTGAGATT
GGGTTCACGTGATAGG
GGGTTCACGTGACCTG

Relative binding free energy, -0.628 kJ/mol:
TAGGCCACGTGGTGTT
AGCATCACGTGGTGGT
AATAGCACGTGGTGAT
GTCAGCACGTGGGCGT
TGAAGCACGTGGCAGG

Relative binding free energy, 1.21 kJ/mol:
CGAGTCACGTGAGTGA
GGTTACACGTGTGGAC
GTGCTCACGTGAATGG
TGGCTCACGTGAATTG

Relative binding free energy, -0.795 kJ/mol:
ATTGGCACGTGGCTAG

Relative binding free energy, 1.09 kJ/mol:
GTGGACACGTGAGGCA
CTTTGCACGTGGAAGT
TGATTCACGTGTAACT

Relative binding free energy, -0.418 kJ/mol:
TGCGCCACGTGTGGTT
TAGCACACGTGGGTGT
GGGAACACGTGGCTGG
CGGTGCACGTGCCGGG

Relative binding free energy, 0.795 kJ/mol:
TAGGTCACGTGTCAGG
AGAATCACGTGGGGGC
GGGTGCACGTGAAGTA
TTTGTCACGTGTGTGG
GCGGACACGTGTAGTT
TGGGTCACGTGGTCAC

Relative binding free energy, 0.126 kJ/mol:
TTGGGCACGTGACATA
GAAAGCACGTGGTGAT
GGTAACACGTGGAGGC
GATGGCACGTGCTTTT
TCTGTCACGTGCGGTA

Relative binding free energy, -0.711 kJ/mol:
TTGACCACGTGGGTAT

Relative binding free energy, 0.251 kJ/mol:
AGTTGCACGTGCTTGG
GACAGCACGTGAGGGG
GTTTCCACGTGTGCGT
CATGTCACGTGGTGAC
GAGGACACGTGGAGGG
TGCGTCACGTGTGTGT

Relative binding free energy, 0.46 kJ/mol:
GTAGTCACGTGGGTTT
GATCGCACGTGTTGTT
AGGTACACGTGTAAGA
GGGGGCACGTGAGCAT
GTATGCACGTGTATTT
AGGGGCACGTGATGAT
CGACGCACGTGTGGGT
GGTAGCACGTGAGATG

Relative binding free energy, 0.502 kJ/mol:
CTATTCACGTGTAGTG
TGGAGCACGTGAGTTG
TTAATCACGTGTAGTA
TAAATCACGTGGGAGG

Relative binding free energy, -0.0837 kJ/mol:
GATTGCACGTGGTGCT
TTTGACACGTGTTCAG
TTTGCCACGTGGTTTA

Relative binding free energy, 0.293 kJ/mol:
CTTTGCACGTGTGAGA
GTTGGCACGTGTTAGA
TTAAACACGTGGAAGT
CGTTACACGTGGTAAT
AGTATCACGTGGGGAA
